Toxic doses and inconclusive results are not listed. A number of entries come with more than one value. They are shown here; other results are not. There may be further records. The records of an entry are repeated measurements across runs, samples, wells, individuals or studies.
System: CD2F1 mice, intracerebral L1210 leukemia, survival T/C
Experiment: NCI In Vivo Anticancer Drug Screen. Data for tumor model L1210 Leukemia (intracerebral) in CD2F1 (CDF1) mice
Settings: schedule: Q01DX009 (ip), vehicle: saline, higher = longer survival
Description: The antitumor activity of compounds was measured in mice bearing transplantable tumors. Survival or tumor size were measured and the results are expressed as the measurement made in the treated group (T) divided by the measurement made in the vehicle treated control group (C). The tumor model used in this assay is L1210 Leukemia (intracerebral) in CD2F1 (CDF1) mice

For `CC/C(=C(/CC)c1ccc(O)cc1)c1ccc(O)cc1`, the T/C (endpoint: median survival time, dose: 128.0 mg/kg/injection) was 94 % of control and 153 % of control.

`O=C1C(NCCO)=C(N2CC2)C(=O)C(NCCO)=C1N1CC1` was tested, and the T/C (endpoint: mean survival time, dose: 0.75 mg/kg/injection) was 122 % of control and 157 % of control.

— PubChem BioAssay AID260 (DTP/NCI, 2004)
